# Inconclusive results are not listed. Unless noted, calls follow the shape of the dose curve; as a rule, active = well fitted activation curve with a large enough effect; inconclusive = small, poorly fitted or top-dose-only effect, or effect the other way; inactive = flat fitted curve, though single readings scatter. For part of its entries the source gives two or more results. This list holds those alone. There may be further records. Values given together are repeats (runs, samples, wells, individuals or studies). Where a structure was tested more than once in an assay, its records may differ in their call. Marks in square brackets tell the records apart. A, B and so on number the origins entry by entry.
# Columns and labels:
# [1] = Cellular Toxicity (caspase-3) NIH 3T3 (AID 666);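 also: caspase signal read after 16 h compound exposure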; also: potency is read from the fitted curve at half-maximal effect
# From the text: NIH Chemical Genomics Center [NCGC]
# NIH Molecular Libraries Screening Centers Network [MLSCN]
# National Institutes of Environmental Health Sciences [NIEHS]
# National Toxicology Program [NTP]
# We have developed a 1536-well cell-based assay for quantitative high throughput screening (qHTS) against a number of cell lines to determine in vitro caspase 3/7 of small molecules. This particular assay uses the NIH 3T3 cell line which is derived from mouse fibroblasts.
# NCGC Assay Protocol Summary:
# The Caspase-Glo 3/7 assay (Promega) is a homogeneous method to measure caspase-3 and caspase-7 activities in cultured cells. The quantitation of caspase 3/7 activity is based on the cleavage of a peptide-aminoluciferin substrate. […]
# Using the Caspase-Glo 3/7 assay, the amount of caspase 3/7 activity was measured in the NIH 3T3 cell line with complete culture medium following compound treatment for 16 hours. […] Library compounds were measured for their ability to cause the activation of caspase 3/7 in the cell line, as reflected by an increase in luminescence signal, in a concentration-dependent manner. […] AC50 values were determined from concentration-response data modeled with the standard Hill equation. […]
# 8. Detection; Luminescence; Viewlux plate reader
# Keywords: caspase 3/7, apoptosis, NIH 3T3 cell line, luminescence, NTPHTS, NTPHTS_NCGC, NIEHS, EPA, DSSTox, MLSMR, MLSCN, NIH Roadmap, qHTS, NCGC
# [2] = target: Estrogen receptor (Homo sapiens) (UniProt P03372); experiment: qHTS assay for small molecule agonists of estrogen receptor alpha signaling (AID 588514; calls by dose curve; also: nearly all actives have a fitted effect of over 70% in size; also: potency is read from the fitted curve at half-maximal effect;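 as to activation: 0% = vehicle only and 100% = reference agonist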)
# Method in brief: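 Efficacy is expressed against 20 nM 17-beta-estradiol (100%) and DMSO basal (0%); EC50 from Hill equation. Assay: beta-lactamase reporter in ER-alpha-UAS-bla HEK 293 cells, 18 h compound incubation, CCF4 detection.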
# [3] = qHTS assay for small molecule antagonists of peroxisome proliferator-activated receptor delta signaling (AID 588535); conditions: HEK293T PPARd-UAS-bla, beta-lactamase FRET ratio, 18 h; 460 nm channel;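 also: cells co-treated with a PPAR-delta agonist as stimulator during compound exposure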
# Method in brief: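 Fluorescence from CCF4-loaded GeneBLAzer PPAR-delta-UAS-bla HEK293T cells (2 hrs RT loading) quantified reporter inhibition after an 18 hr, 37 C compound exposure across a titration.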
# Chain of UniProt P03372 (P03372 whole entry, looked up): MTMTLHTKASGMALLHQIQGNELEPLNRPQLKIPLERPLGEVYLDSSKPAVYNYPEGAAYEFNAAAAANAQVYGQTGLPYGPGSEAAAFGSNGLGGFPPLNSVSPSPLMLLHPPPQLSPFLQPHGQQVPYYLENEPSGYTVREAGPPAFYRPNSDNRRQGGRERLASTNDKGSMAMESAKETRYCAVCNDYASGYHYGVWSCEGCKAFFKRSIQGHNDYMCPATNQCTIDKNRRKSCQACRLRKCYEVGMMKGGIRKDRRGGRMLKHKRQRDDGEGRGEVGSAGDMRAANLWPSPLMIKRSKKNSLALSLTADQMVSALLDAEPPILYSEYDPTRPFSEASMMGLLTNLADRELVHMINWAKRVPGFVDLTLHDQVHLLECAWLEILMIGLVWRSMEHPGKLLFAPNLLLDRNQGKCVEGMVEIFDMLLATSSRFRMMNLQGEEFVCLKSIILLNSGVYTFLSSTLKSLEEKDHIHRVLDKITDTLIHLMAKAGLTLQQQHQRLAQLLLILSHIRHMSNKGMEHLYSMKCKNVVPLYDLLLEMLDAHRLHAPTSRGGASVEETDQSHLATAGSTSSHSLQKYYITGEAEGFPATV
smiles,measurement,setting,value
[O]=[Cr](=[O])([OH])[O][Cr](=[O])(=[O])[OH],Potency,[1],active: 50.1 µM [sample A] and inactive [sample B]
CCCCCCCCOC(=O)c1ccccc1C(=O)OCCCCCCCC,Potency,[2],active: 39.8 µM [sample A] and inactive [sample B]
ClC1C(Cl)C(Cl)C(Cl)C(Cl)C1Cl (stereo not drawn),max response,[3],"10.7, 24.6, 26.3, -22.3% [separate samples]"

# Reference: PubChem BioAssay (NCATS)
